In US5955572A, “Structural mimics of RGD-binding sites” (La Jolla Cancer Research Foundation, priority 1998, dated 1999):
At least one peptide structure holds a part that was inferred or is arguable (an end, a ring closure or a residue). Where a SMILES comes first, the peptide text is derived from it. Bridges are numbered along the chain shown (N, C = ends).

Columns and labels:
[1] = target: T1, fibronectin III8,11 fragment / fibronectin fragments (Homo sapiens, UniProt P02751); assay: Phage attachment assay on insolubilized fibronectin or fibronectin fragments; format: binding; settings: soluble synthetic peptide or EDTA
T1 construct: Recombinant fibronectin fragments containing type III repeats 8 and 9, 9 and 10, 10 and 11, 10 alone, and 8 through 11; GST; made in house

[2] = system: immobilized RGD-containing peptide; assay: […]-phage attachment to immobilized peptides; format: binding; settings: for blocking of CWDDGWLC-phage binding by peptide in solution: soluble peptides at 1 mM
[3] = system: RGD-phage (phage displaying a peptide containing the CELRGDGWC motif); assay: RGD-phage attachment to immobilized peptides; format: binding; settings: for inhibition of RGD-phage binding: soluble peptides at 1 mM; for RGD-phage binding to immobilized peptide: peptide coated at 20 μg/ml
Fibronectin = assay: Affinity chromatography on […]-Sepharose; format: binding, Human; settings: peptide 1 mM; SDS-PAGE, Coomassie blue
β3 (109-133) peptide = target: T2, β3 (109-133) peptide (Homo sapiens, UniProt P05106); assay: RGD-phage binding to peptides from the β3 integrin subunit; settings: for blocking of RGD-phage binding to β3 (109-133): soluble peptide or EDTA; for cation requirement of RGD-phage binding: cations during coating or during phage binding; for RGD-phage binding to immobilized β3 peptide: peptide coated at 100 μg/ml
T2 construct: made in house; host or cells: chemical synthesis
T2 sequence (P05106 135-159 limits assumed): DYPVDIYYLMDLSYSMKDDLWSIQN

purified αIIb β3 = assay: Immunoblot with anti-[…] serum, purified integrin; settings: peptide 100 μM
[4] = system: β1 and β3 subunits in MG-63 total cell extracts; assay: Immunoblot with anti-[…] serum, cell extracts; settings: peptide 100 μM
[5] = system: osteosarcoma cell line, MG-63; assay: Cell attachment assay; format: cell-based

T1 sequence (P02751 1357-1721 limits assumed): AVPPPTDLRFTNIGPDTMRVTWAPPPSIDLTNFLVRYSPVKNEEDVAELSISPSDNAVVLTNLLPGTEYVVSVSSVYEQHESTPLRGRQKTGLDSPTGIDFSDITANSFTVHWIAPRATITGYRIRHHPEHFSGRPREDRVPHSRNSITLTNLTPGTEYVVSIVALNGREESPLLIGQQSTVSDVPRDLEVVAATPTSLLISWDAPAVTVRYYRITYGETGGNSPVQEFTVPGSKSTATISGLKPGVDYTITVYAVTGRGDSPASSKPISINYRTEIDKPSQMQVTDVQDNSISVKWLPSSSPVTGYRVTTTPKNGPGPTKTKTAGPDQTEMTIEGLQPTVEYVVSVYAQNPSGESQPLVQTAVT

SMILES: CC(C)C[C@@H]1NC(=O)[C@H](CO)NC(=O)[C@H](CC(N)=O)NC(=O)[C@H](CC(C)C)NC(=O)[C@H](CCCNC(=N)N)NC(=O)[C@H](C(C)C)NC(=O)[C@@H](NC(=O)[C@H](C)NC(=O)CN)CSSC[C@@H](C(=O)NCC(=O)N[C@@H](C)C(=O)O)NC(=O)[C@H](C)NC1=O (H-GACVRLNSLACGA-OH; disulfide 3-11)
- inhibition of CWDDGWLC-phage binding to the III8,11 fragment [1]: but not
- blocking of CWDDGWLC-phage binding by peptide in solution [2]: had no effect
- inhibition of RGD-phage binding [3]: unaffected

SMILES: N=C(N)NCCC[C@H](NC(=O)CN)C(=O)NCC(=O)N[C@@H](CCC(=O)O)C(=O)N[C@@H](CO)C(=O)N1CCC[C@H]1C(=O)O [GRGESP] (H-GRGESP-OH)
- elution of bound fibronectin from CWDDGWLC-Sepharose (Fibronectin): but not

SMILES: CSCC[C@@H]1NC(=O)[C@H](Cc2c[nH]c3ccccc23)NC(=O)CNC(=O)[C@H](CC(=O)O)NC(=O)CNC(=O)[C@H](CCCNC(=N)N)NC(=O)[C@@H](NC(=O)[C@H](C)N)CSSC[C@@H](C(=O)NCC(=O)O)NC1=O (H-ACRGDGWMCG-OH; disulfide 2-9)
- inhibition of CWDDGWLC-phage binding to the III8,11 fragment [1]: inhibited CWDDGWLC-phage (SEQ. ID. NO. 1) binding in a dose-dependent manner
- CWDDGWLC-phage binding to immobilized peptide ([2]; peptide coated at 20 μg/ml): bound
- blocking of CWDDGWLC-phage binding by peptide in solution [2]: blocked
- RGD-phage binding to immobilized peptide [3]: slight, but consistent, binding
- inhibition of RGD-phage binding [3]: inhibited

SMILES: N=C(N)NCCC[C@H](NC(=O)CN)C(=O)NCC(=O)N[C@@H](CC(=O)O)C(=O)N[C@@H](CO)C(=O)N1CCC[C@H]1C(=O)O [GRGDSP]
- elution of bound fibronectin from CWDDGWLC-Sepharose (Fibronectin): eluted
- blocking of RGD-phage binding to β3 (109-133) (β3 (109-133) peptide): blocked

SMILES: CC[C@H](C)[C@H](NC(=O)[C@H](CO)NC(=O)[C@H](Cc1c[nH]c2ccccc12)NC(=O)[C@H](CC(C)C)NC(=O)[C@H](CC(=O)O)NC(=O)[C@H](CC(=O)O)NC(=O)[C@H](CCCCN)NC(=O)[C@H](CCSC)NC(=O)[C@H](CO)NC(=O)[C@H](Cc1ccc(O)cc1)NC(=O)[C@H](CO)NC(=O)[C@H](CC(C)C)NC(=O)[C@H](CC(=O)O)NC(=O)[C@H](CCSC)NC(=O)[C@H](CC(C)C)NC(=O)[C@H](Cc1ccc(O)cc1)NC(=O)[C@H](Cc1ccc(O)cc1)NC(=O)[C@@H](NC(=O)[C@H](CC(=O)O)NC(=O)[C@@H](NC(=O)[C@@H]1CCCN1C(=O)[C@H](Cc1ccc(O)cc1)NC(=O)[C@@H](N)CC(=O)O)C(C)C)[C@@H](C)CC)C(=O)N[C@@H](CCC(N)=O)C(=O)N[C@@H](CC(N)=O)C(=O)O [β3 (109-133)] (H-DYPVDIYYLMDLSYSMKDDLWSIQN-OH)
- cation requirement of RGD-phage binding (β3 (109-133) peptide): required the presence of divalent cations
- RGD-phage binding to immobilized β3 peptide (β3 (109-133) peptide): bound
- abrogation of anti-CWDDGWLC serum reactivity by preincubation with peptide (purified αIIb β3): abrogated
- abrogation of anti-CWDDGWLC serum reactivity by pre-incubation with peptide [4]: abrogated

SMILES: CC(C)C[C@@H]1NC(=O)[C@H](Cc2c[nH]c3ccccc23)NC(=O)CNC(=O)[C@H](CC(=O)O)NC(=O)[C@H](CC(=O)O)NC(=O)[C@H](Cc2c[nH]c3ccccc23)NC(=O)[C@@H](N)CSSC[C@@H](C(=O)O)NC1=O (H-CWDDGWLC-OH; disulfide 1-8)
- inhibition of CWDDGWLC-phage binding to the III8,11 fragment [1]: inhibited CWDDGWLC-phage (SEQ. ID. NO. 1) binding in a dose-dependent manner
- blocking of CWDDGWLC-phage binding by peptide in solution [2]: blocked
- RGD-phage binding to immobilized peptide [3]: bound
- inhibition of RGD-phage binding [3]: inhibited
- effectiveness compared with the standard RGD peptide GRGDSP ([5]; cell adhesion inhibition): slightly less effective
- inhibition of cell adhesion ([5]; substrate collagen type IV): but not
- inhibition of cell adhesion ([5]; substrate fibronectin): inhibited cell adhesion
- inhibition of cell adhesion ([5]; substrate vitronectin): inhibited cell adhesion
- blocking of RGD-phage binding to β3 (109-133) (β3 (109-133) peptide): blocked
- abrogation of anti-CWDDGWLC serum reactivity by preincubation with peptide (purified αIIb β3): abrogated
- abrogation of anti-CWDDGWLC serum reactivity by pre-incubation with peptide [4]: abrogated

SMILES: CC[C@H](C)[C@H](NC(=O)[C@H](CO)NC(=O)[C@H](Cc1c[nH]c2ccccc12)NC(=O)[C@H](CC(C)C)NC(=O)[C@H](C)NC(=O)[C@H](C)NC(=O)[C@H](CCCCN)NC(=O)[C@H](CCSC)NC(=O)[C@H](CO)NC(=O)[C@H](Cc1ccc(O)cc1)NC(=O)[C@H](CO)NC(=O)[C@H](CC(C)C)NC(=O)[C@H](CC(=O)O)NC(=O)[C@H](CCSC)NC(=O)[C@H](CC(C)C)NC(=O)[C@H](Cc1ccc(O)cc1)NC(=O)[C@H](Cc1ccc(O)cc1)NC(=O)[C@@H](NC(=O)[C@H](CC(=O)O)NC(=O)[C@@H](NC(=O)[C@@H]1CCCN1C(=O)[C@H](Cc1ccc(O)cc1)NC(=O)[C@@H](N)CC(=O)O)C(C)C)[C@@H](C)CC)C(=O)N[C@@H](CCC(N)=O)C(=O)N[C@@H](CC(N)=O)C(=O)O [AA] (H-DYPVDIYYLMDLSYSMKAALWSIQN-OH)
- cation requirement of RGD-phage binding (β3 (109-133) peptide): same cation requirements
- RGD-phage binding to immobilized β3 peptide (β3 (109-133) peptide): much weaker
